Assay results published in PubChem BioAssay AID1345082 (National Center for Advancing Translational Sciences (NCATS), 2018).
Values joined by “and” are separate entries in the source; they are usually repeats but may differ in a detail not shown here. Identical values can stand only once. About 4,000 (4.3%) of roughly 94,000 compounds were called active. The shares of active, inactive and inconclusive entries below differ from those in the screen. Calls come from the whole dose curve; as a rule, active = well fitted inhibition curve with a large enough effect; inconclusive = small, poorly fitted or top-dose-only effect; inactive = no such curve, though single readings can be large or run the other way. A potency beside an inconclusive call is a rough fit, not a confirmed value.
% is set by controls: 0 for no effect and ±100 for the full control effect; potency is the fitted concentration of half-maximal effect; tags give direction and shape of the fitted curve.

Assay: Cytotoxic Profiling in NIH 3T3 Cell Line of Diverse Libraries Using Quantitative High-Throughput Screening; note: nearly all actives have a fitted effect of over 55% in size
Settings: NIH 3T3 viability, CellTiter-Glo ATP luminescence, 48-72 h; activity change, negative = cytotoxicity: at 96.7 µM (top of the series); series mostly up to 96.7 µM
How it was run: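 First NIH 3T3 cells are plated at 400 cells/well; next compound is pinned in; then plates incubate 48 or 72 hr at 37 °C; finally CellTiter-Glo is added and luminescence read after 10 min.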
For `Cc1cc2c(-c3ccccc3F)nc(-c3c(C)noc3C)cc2[nH]1`, the Potency was inconclusive: 39.8 µM [inhibitor, partial curve, poor fit]. With `Cc1cccc(CN2CCC3(CC2)COCCN3C(=O)OCc2ccccc2)c1` the Potency was active: 39.8 µM. For `CC(Cn1cncn1)Nc1nc(-c2ccncc2)nc2c1cnn2C` (stereo not given), the Potency was inconclusive: 50.1 µM [inhibitor, partial curve, poor fit]. In the case of `O=C(c1nc2cccnc2n(C2CCCC2)c1=O)N1CCN(C(=O)C2CC2)CC1`, the “activity change, negative = cytotoxicity” value is reported as inactive: -11.8%. For `COc1ccc(-c2cc3c(ccn3C)c(C(=O)NCCC(N)=O)n2)cc1OC`, the Potency was inconclusive: 56.2 µM [inhibitor, partial curve, poor fit]. With `CN(CCNC(=O)C1(CCO)CC12CCOCC2)C1CCCCC1` (stereo not given) the “activity change, negative = cytotoxicity” value was inactive: -23.2%. For `O=C1CCCN1CCCN1C(=O)[C@@H]2C[C@@H](O)CN2C2(CN(Cc3ccccc3Cl)C2)C1=O`, the “activity change, negative = cytotoxicity” value was inactive: -11.5%. With `Cc1nn(-c2ccccc2)c2c1C(C)N(C1CCN(C(=O)c3ccc(F)cc3)CC1)C2=O` (stereo not given) the Potency was active: 35.5 µM and inconclusive: 50.1 µM [inhibitor, partial curve, poor fit]. For `COc1ccc(-c2cc(-c3cccc(NC(C)=O)c3)cn3cncc23)cc1`, the Potency was inconclusive: 31.6 µM [inhibitor, partial curve, poor fit]. With `CCN1c2cc(C(=O)Nc3cccc(C#N)c3)ccc2C(=O)N2CCCCCC21` (stereo not given) the Potency was inconclusive: 50.1 µM [inhibitor, partial curve, poor fit]. In the case of `COc1ccc(CN2CC3(CCN(C(=O)Nc4ccc(OC)c(OC)c4)CC3)C2=O)cc1`, the “activity change, negative = cytotoxicity” value is reported as inactive: -22.9%. In the case of `CCCc1ccc(S(=O)(=O)N2CCC3(CC2)C(=O)N(CC)c2ccccc23)cc1`, the “activity change, negative = cytotoxicity” value is reported as inactive: -0.938%. With `Fc1ccc(Nc2nc(-c3ccccc3F)no2)cc1` the Potency was inconclusive: 44.7 µM [inhibitor, partial curve, poor fit]. For `CCCc1ccc2oc(C(=O)N(C)Cc3snnc3C)c(C)c2c1`, the Potency was inconclusive: 56.2 µM [inhibitor, partial curve, poor fit]. With `O=C(c1ccccn1)N1CCC(N2CCOCC2=O)CC1` the “activity change, negative = cytotoxicity” value was inactive: -2.85%. In the case of `COc1ccc(-c2cc(N3CCCN(C(=O)CCCc4ccccc4)CC3)n[nH]2)cc1`, the Potency is reported as inconclusive: 50.1 µM [inhibitor, partial curve, poor fit]. For `COc1ccc(-c2ccccc2C(=O)N2CCC(NC(=O)Cc3cccc(Cl)c3)CC2)nn1`, the “activity change, negative = cytotoxicity” value was inactive: -8.32%. In the case of `N#Cc1ccc(CN2CCCCCCNC(=O)[C@@H]3C[C@@H](C(=O)N4CCc5ccccc5C4)C[C@@H]32)cc1`, the Potency is reported as inconclusive: 50.1 µM [inhibitor, partial curve, poor fit]. With `Cc1cn2nnc(C(=O)NCC3CCCCC3)c2c(=O)[nH]1` the “activity change, negative = cytotoxicity” value was inactive: -18.8%. In the case of `O=C(Nc1cccc(-c2nnc3n2CCCC3)c1)c1ccncc1`, the “outcome” value is reported as “inactive”. In the case of `COc1ccc(CN2CCCC(C)(NC(C)=O)C2)c2ccccc12` (stereo not given), the Potency is reported as inconclusive: 100 µM [inhibitor, partial curve]. With `c1cc(-c2cc(-c3cn[nH]c3)cn3cncc23)ccn1` the Potency was active: 28.2 µM. For `CN(Cc1cccc(C(F)(F)F)c1)C(=O)CC1CCCC1`, the “activity change, negative = cytotoxicity” value was inactive: -31.1% [at 138 µM]. For `OC[C@@H]1CN(Cc2ccco2)C[C@H]1c1nc(-c2ccncc2)no1`, the “activity change, negative = cytotoxicity” value was inactive: -9.63%. In the case of `COc1cccc(-c2ccc(NC(=O)C3CCCN3C(=O)CNC(C)=O)cc2)c1` (stereo not given), the “activity change, negative = cytotoxicity” value is reported as inactive: -29.3%. For `COc1ccccc1-n1cc(C(=O)NC[C@@H]2C[C@H](F)CN2)cn1`, the “activity change, negative = cytotoxicity” value was inactive: -14.7%. With `CN(Cc1cc(C[C@@H]2C[C@H](NCc3cccnc3)C2(C)C)no1)c1ccccc1` the Potency was inconclusive: 56.2 µM [inhibitor, partial curve, poor fit]. For `O=[S+]([O-])(Nc1nncs1)c1ccc2c(c1)OCCN(Cc1ccncc1)C2`, the Potency was inconclusive: 56.2 µM [inhibitor, partial curve, poor fit]. With `CCN1C(=O)C2(CCN(S(=O)(=O)Cc3ccccc3)CC2)c2ccccc21` the “activity change, negative = cytotoxicity” value was inactive: -4.11%. For `COC(=O)c1ccc(COC[C@@H]2CN(C(C)C)S(=O)(=O)[C@H]2c2ccccc2)cc1`, the Potency was inconclusive: 50.1 µM [inhibitor, partial curve, poor fit]. For `Cc1cc(C)n(CC(=O)N[C@@H]2CN(Cc3cccnc3)C[C@H]2CN(C)C)n1`, the “activity change, negative = cytotoxicity” value was inactive: -6.34%. With `COCCN1CCCC(c2[nH]ccc2C(=O)N2CCN(c3ccccc3)CC2)C1` (stereo not given) the “activity change, negative = cytotoxicity” value was inactive: -18.7%. In the case of `O=C(NCc1cccc(C(F)(F)F)c1)c1ccc2nccn2c1`, the Potency is reported as inconclusive: 56.2 µM [inhibitor, partial curve, poor fit]. With `c1ccc(CNC[C@H]2Cn3cc(-c4ccccc4)nc3CO2)cc1` the Potency was inconclusive: 100 µM [inhibitor, partial curve, poor fit]. For `COc1ccc(Cl)cc1C(=O)NC1CCCN(c2cc(-c3ccccc3)[nH]n2)C1` (stereo not given), the Potency was inconclusive: 44.7 µM [inhibitor, partial curve, poor fit]. In the case of `O=C(c1cccs1)N1CCOc2ccc(N3CCCC3)cc2C1`, the Potency is reported as inconclusive: 35.5 µM [inhibitor, partial curve]. For `CN1CCC2(C1)CN(CC1CCOCC1)c1ccc(C(=O)NCCCO)cc12` (stereo not given), the Potency was active: 89.1 µM. With `COCc1nnc(NC(=O)C2c3ccccc3C(=O)N(CC(C)C)C23CCCC3)s1` (stereo not given) the Potency was inconclusive: 70.8 µM [inhibitor, single point]. With `O=C(C1CCCN1C(=O)c1cccc(-c2ccccn2)c1)N1CCOCC1` (stereo not given) the “activity change, negative = cytotoxicity” value was inactive: -22%. In the case of `CCOC(=O)N1CCC(=O)N(C)C[C@H]2COc3ccc(C)cc3[C@H]21`, the Potency is reported as inconclusive: 44.7 µM [inhibitor, partial curve, poor fit]. With `O=C1c2c(nc(CNCC3CC3)n2Cc2ccccc2)NCCN1Cc1ccccc1` the Potency was inconclusive: 89.1 µM [inhibitor, partial curve]. In the case of `O[C@]12CCNC[C@H]1CN(Cc1cccc(N3CCOCC3)c1)CC2`, the “activity change, negative = cytotoxicity” value is reported as inactive: 0.206%. With `Cc1cccc(C(=O)N2CCC3(CC2)CC(Cc2ccc(F)cc2)CCO3)c1` (stereo not given) the Potency was inconclusive: 44.7 µM [inhibitor, partial curve, poor fit]. For `O=C(NC[C@H]1O[C@@H](CC(=O)N2CCc3ccccc32)[C@H](O)[C@@H]1O)C1CC1`, the Potency was inconclusive: 100 µM [inhibitor, partial curve]. For `Cc1noc(-c2ccc(OC3CN(C(=O)NC4CCCC4)C3)cc2)n1`, the Potency was inconclusive: 31.6 µM [inhibitor, full curve, poor fit]. For `O=C(c1cccc(Cl)c1)N1CCN(c2cc(C(F)(F)F)ncn2)CC1`, the Potency was inconclusive: 35.5 µM [inhibitor, partial curve, poor fit]. With `CC(C)c1ccc(S(=O)(=O)c2nnn3c2nc(NCc2ccc(F)cc2)c2ccccc23)cc1` the Potency was inconclusive: 56.2 µM [inhibitor, partial curve, poor fit]. In the case of `CC1=C[C@@H](CNC(=O)COCC(=O)O)[C@H](C(C)C)C[C@H]1Cc1nc2ccc(C)cc2[nH]1`, the “activity change, negative = cytotoxicity” value is reported as inactive: 2.17% [at 174 µM]. In the case of `Cn1c(CN2CCC3(CCNCC3)C2)cc2ccccc21`, the Potency is reported as inconclusive: 56.2 µM [inhibitor, partial curve, poor fit]. In the case of `Cn1nc(C2CC2)n(C2CCN(C(=O)c3ccsc3)CC2)c1=O`, the “activity change, negative = cytotoxicity” value is reported as inactive: -28.4%. For `Cc1ccc(-c2ccccc2CN2CCN(C(=O)N(C)C)CC2)cc1Cl`, the Potency was inconclusive: 44.7 µM [inhibitor, partial curve, poor fit]. For `CN1CCCCCC(O)c2cc(C(=O)N3CCc4ccccc43)ccc21` (stereo not given), the Potency was active: 35.5 µM. For `COc1cccc([S+](=O)([O-])N2CCc3nc(C)nc(-c4ccc(Cl)cc4)c3C2)c1`, the Potency was inconclusive: 50.1 µM [inhibitor, partial curve, poor fit]. For `COc1cccc(C(=O)NC2CCN(Cc3cccc(-c4ccc(F)cc4F)c3)CC2)c1`, the Potency was inconclusive: 39.8 µM [inhibitor, partial curve, poor fit] and active: 35.5 µM. With `CC(=O)Nc1ccc(CN2C(=O)OC3(CCN(Cc4ccc(C(C)C)cc4)CC3)C2(C)c2ccccc2)cc1` (stereo not given) the Potency was active: 35.5 µM. With `Cc1nnc2ccc(N3CCN(C(=O)c4cccc(Cl)c4)CC3)nn12` the Potency was inconclusive: 56.2 µM [inhibitor, partial curve, poor fit]. With `Fc1ccc(-c2cnc([C@@H]3COCCN3Cc3cccnc3)[nH]2)c(F)c1` the Potency was inconclusive: 79.4 µM [inhibitor, partial curve]. For `C=CCn1cc2c3c(cccc31)[C@H](CC(C)C)N[C@H](C(=O)O)C2`, the Potency was inconclusive: 112 µM [inhibitor, partial curve]. For `C[C@@H](NC(=O)C[C@@H]1c2nc(-c3cccnc3)sc2C[C@@H]2[C@](C)(CO)[C@H](O)CC[C@]21C)c1ccccc1`, the Potency was active: 20 µM. For `Cc1cccc(C(=O)N2CCCCCCNC(=O)[C@@H]3C[C@@H](c4nc(C(C)C)no4)C[C@@H]32)c1`, the “activity change, negative = cytotoxicity” value was inactive: -26%. In the case of `C[C@H](C(=O)N1CCCC1)C1CC[C@@]2(C)Cc3sc(CS(=O)(=O)c4ccc(Cl)cc4)nc3[C@@H](C)[C@@H]2[C@H]1O` (stereo not given in full), the Potency is reported as inconclusive: 44.7 µM [inhibitor, partial curve]. In the case of `COc1cccc(CNC(=O)c2ccc3c(c2)CC(=O)N3Cc2cccc(F)c2)c1OC`, the Potency is reported as inconclusive: 44.7 µM [inhibitor, partial curve, poor fit]. In the case of `Cc1nc(C(=O)Nc2nn(Cc3ccccc3)c3cc(OC(C)C)ccc23)c(C)o1`, the Potency is reported as inconclusive: 79.4 µM [inhibitor, partial curve]. For `COC[C@@H]1[C@H](C(=O)N2CCN(c3cccc(C)c3)CC2)CCC(=O)N1C`, the “activity change, negative = cytotoxicity” value was inactive: -14.4%. For `Cc1nn(-c2ccccc2)c2c1C(C(C)C)N(C1CN(C(=O)NC3CCCC3)C1)C2=O` (stereo not given), the “activity change, negative = cytotoxicity” value was inactive: -18.5%.
